Laboratory results published in the supplement of paper PMC9912026.
± gives the uncertainty stated by the source. This continues a long series; more values of the same kind are listed elsewhere.

Test system: A375
Assay: pERK immunofluorescence, normalised; higher = more ERK phosphorylation
Conditions: vemurafenib 1 µM, drug treatment time 24 h
Description: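 A375 or A375 CRISPRa-EGFR (A375_Cra_F7_5/13) cells were adapted for 24 h to a cobimetinib dose series, with or without 1 uM vemurafenib, then stimulated with EGF (100 ng/mL) or mock medium and fixed at the indicated times. pERK was measured by immunofluorescence as the population mean normalised to baseline, with the SD of technical replicates (n=2).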

O=C(c1ccc(F)c(F)c1Nc1ccc(I)cc1F)N1CC(O)([C@@H]2CCCCN2)C1 [cobimetinib]
pERK immunofluorescence (EGF 0 ng/mL, time after EGF/mock 0.083 h, cobimetinib 31.62 pM): 0.1497 ± 0.00093
pERK immunofluorescence (EGF 0 ng/mL, time after EGF/mock 0.083 h, cobimetinib 0.0001 µM): 0.149 ± 0.0015
pERK immunofluorescence (EGF 0 ng/mL, time after EGF/mock 0.083 h, cobimetinib 0.000316228 µM): 0.151 ± 0.0023
pERK immunofluorescence (EGF 0 ng/mL, time after EGF/mock 0.083 h, cobimetinib 0.001 µM): 0.1456 ± 0.00082
pERK immunofluorescence (EGF 0 ng/mL, time after EGF/mock 0.083 h, cobimetinib 0.003162278 µM): 0.14 ± 0.0026
pERK immunofluorescence (EGF 0 ng/mL, time after EGF/mock 0.083 h, cobimetinib 0.01 µM): 0.1333 ± 0.00017
pERK immunofluorescence (EGF 0 ng/mL, time after EGF/mock 0.083 h, cobimetinib 0.031622777 µM): 0.1278 ± 0.00036
pERK immunofluorescence (EGF 0 ng/mL, time after EGF/mock 0.083 h, cobimetinib 0.1 µM): 0.126 ± 0.00046
pERK immunofluorescence (EGF 0 ng/mL, time after EGF/mock 0.083 h, cobimetinib 0.316227766 µM): 0.1264 ± 0.00095
pERK immunofluorescence (EGF 0 ng/mL, time after EGF/mock 0.083 h, cobimetinib 1 µM): 0.128 ± 0.00036
pERK immunofluorescence (EGF 0 ng/mL, time after EGF/mock 0.5 h, cobimetinib 31.62 pM): 0.1474 ± 0.0014
pERK immunofluorescence (EGF 0 ng/mL, time after EGF/mock 0.5 h, cobimetinib 0.0001 µM): 0.1461 ± 0.0003
pERK immunofluorescence (EGF 0 ng/mL, time after EGF/mock 0.5 h, cobimetinib 0.000316228 µM): 0.1464 ± 0.00024
pERK immunofluorescence (EGF 0 ng/mL, time after EGF/mock 0.5 h, cobimetinib 0.001 µM): 0.144 ± 0.0017
pERK immunofluorescence (EGF 0 ng/mL, time after EGF/mock 0.5 h, cobimetinib 0.003162278 µM): 0.138 ± 0.0033
pERK immunofluorescence (EGF 0 ng/mL, time after EGF/mock 0.5 h, cobimetinib 0.01 µM): 0.1353 ± 0.00053
pERK immunofluorescence (EGF 0 ng/mL, time after EGF/mock 0.5 h, cobimetinib 0.031622777 µM): 0.1297 ± 0.00015
pERK immunofluorescence (EGF 0 ng/mL, time after EGF/mock 0.5 h, cobimetinib 0.1 µM): 0.1273 ± 0.0012
pERK immunofluorescence (EGF 0 ng/mL, time after EGF/mock 0.5 h, cobimetinib 0.316227766 µM): 0.12575 ± 5.1e-05
pERK immunofluorescence (EGF 0 ng/mL, time after EGF/mock 0.5 h, cobimetinib 1 µM): 0.1268 ± 0.001
pERK immunofluorescence (EGF 0 ng/mL, time after EGF/mock 2 h, cobimetinib 31.62 pM): 0.139 ± 0.0024
pERK immunofluorescence (EGF 0 ng/mL, time after EGF/mock 2 h, cobimetinib 0.0001 µM): 0.1374 ± 0.00026
pERK immunofluorescence (EGF 0 ng/mL, time after EGF/mock 2 h, cobimetinib 0.000316228 µM): 0.1398 ± 0.00094
pERK immunofluorescence (EGF 0 ng/mL, time after EGF/mock 2 h, cobimetinib 0.001 µM): 0.136 ± 0.0015
pERK immunofluorescence (EGF 0 ng/mL, time after EGF/mock 2 h, cobimetinib 0.003162278 µM): 0.1315 ± 0.0011
pERK immunofluorescence (EGF 0 ng/mL, time after EGF/mock 2 h, cobimetinib 0.01 µM): 0.131 ± 0.0054
pERK immunofluorescence (EGF 0 ng/mL, time after EGF/mock 2 h, cobimetinib 0.031622777 µM): 0.1256 ± 0.00044
pERK immunofluorescence (EGF 0 ng/mL, time after EGF/mock 2 h, cobimetinib 0.1 µM): 0.12311 ± 9.7e-05
pERK immunofluorescence (EGF 0 ng/mL, time after EGF/mock 2 h, cobimetinib 0.316227766 µM): 0.12274 ± 0.00011
pERK immunofluorescence (EGF 0 ng/mL, time after EGF/mock 2 h, cobimetinib 1 µM): 0.1237 ± 0.00035
pERK immunofluorescence (EGF 0 ng/mL, time after EGF/mock 8 h, cobimetinib 31.62 pM): 0.12 ± 0.0014
pERK immunofluorescence (EGF 0 ng/mL, time after EGF/mock 8 h, cobimetinib 0.0001 µM): 0.1206 ± 0.00023
pERK immunofluorescence (EGF 0 ng/mL, time after EGF/mock 8 h, cobimetinib 0.000316228 µM): 0.1191 ± 0.00031
pERK immunofluorescence (EGF 0 ng/mL, time after EGF/mock 8 h, cobimetinib 0.001 µM): 0.122 ± 0.0066
pERK immunofluorescence (EGF 0 ng/mL, time after EGF/mock 8 h, cobimetinib 0.003162278 µM): 0.1137 ± 0.00094
pERK immunofluorescence (EGF 0 ng/mL, time after EGF/mock 8 h, cobimetinib 0.01 µM): 0.113 ± 0.0032
pERK immunofluorescence (EGF 0 ng/mL, time after EGF/mock 8 h, cobimetinib 0.031622777 µM): 0.10705 ± 1.1e-05
pERK immunofluorescence (EGF 0 ng/mL, time after EGF/mock 8 h, cobimetinib 0.1 µM): 0.1046 ± 0.00027
pERK immunofluorescence (EGF 0 ng/mL, time after EGF/mock 8 h, cobimetinib 0.316227766 µM): 0.1042 ± 0.0002
pERK immunofluorescence (EGF 0 ng/mL, time after EGF/mock 8 h, cobimetinib 1 µM): 0.1046 ± 0.0005
pERK immunofluorescence (EGF 0 ng/mL, time after EGF/mock 24 h, cobimetinib 31.62 pM): 0.107 ± 0.0012
pERK immunofluorescence (EGF 0 ng/mL, time after EGF/mock 24 h, cobimetinib 0.0001 µM): 0.1082 ± 0.0008
pERK immunofluorescence (EGF 0 ng/mL, time after EGF/mock 24 h, cobimetinib 0.000316228 µM): 0.106 ± 0.002
pERK immunofluorescence (EGF 0 ng/mL, time after EGF/mock 24 h, cobimetinib 0.001 µM): 0.1066 ± 0.00089
pERK immunofluorescence (EGF 0 ng/mL, time after EGF/mock 24 h, cobimetinib 0.003162278 µM): 0.106 ± 0.0012
pERK immunofluorescence (EGF 0 ng/mL, time after EGF/mock 24 h, cobimetinib 0.01 µM): 0.108 ± 0.0015
pERK immunofluorescence (EGF 0 ng/mL, time after EGF/mock 24 h, cobimetinib 0.031622777 µM): 0.107 ± 0.0033
pERK immunofluorescence (EGF 0 ng/mL, time after EGF/mock 24 h, cobimetinib 0.1 µM): 0.105 ± 0.0076
pERK immunofluorescence (EGF 0 ng/mL, time after EGF/mock 24 h, cobimetinib 0.316227766 µM): 0.09831 ± 0.0002
pERK immunofluorescence (EGF 0 ng/mL, time after EGF/mock 24 h, cobimetinib 1 µM): 0.0983 ± 0.0019
pERK immunofluorescence (EGF 100 ng/mL, time after EGF/mock 0.083 h, cobimetinib 31.62 pM): 1.64 ± 0.02
pERK immunofluorescence (EGF 100 ng/mL, time after EGF/mock 0.083 h, cobimetinib 0.0001 µM): 1.65 ± 0.008
pERK immunofluorescence (EGF 100 ng/mL, time after EGF/mock 0.083 h, cobimetinib 0.000316228 µM): 1.6 ± 0.1
pERK immunofluorescence (EGF 100 ng/mL, time after EGF/mock 0.083 h, cobimetinib 0.001 µM): 1.58 ± 0.051
pERK immunofluorescence (EGF 100 ng/mL, time after EGF/mock 0.083 h, cobimetinib 0.003162278 µM): 1.64 ± 0.04
pERK immunofluorescence (EGF 100 ng/mL, time after EGF/mock 0.083 h, cobimetinib 0.01 µM): 1.59 ± 0.083
pERK immunofluorescence (EGF 100 ng/mL, time after EGF/mock 0.083 h, cobimetinib 0.031622777 µM): 1.38 ± 0.026
pERK immunofluorescence (EGF 100 ng/mL, time after EGF/mock 0.083 h, cobimetinib 0.1 µM): 0.844 ± 0.015
pERK immunofluorescence (EGF 100 ng/mL, time after EGF/mock 0.083 h, cobimetinib 0.316227766 µM): 0.188 ± 0.01
pERK immunofluorescence (EGF 100 ng/mL, time after EGF/mock 0.083 h, cobimetinib 1 µM): 0.1335 ± 0.0002
pERK immunofluorescence (EGF 100 ng/mL, time after EGF/mock 0.5 h, cobimetinib 31.62 pM): 0.6651 ± 0.0043
pERK immunofluorescence (EGF 100 ng/mL, time after EGF/mock 0.5 h, cobimetinib 0.0001 µM): 0.654 ± 0.0086
pERK immunofluorescence (EGF 100 ng/mL, time after EGF/mock 0.5 h, cobimetinib 0.000316228 µM): 0.6125 ± 0.00092
pERK immunofluorescence (EGF 100 ng/mL, time after EGF/mock 0.5 h, cobimetinib 0.001 µM): 0.555 ± 0.013
pERK immunofluorescence (EGF 100 ng/mL, time after EGF/mock 0.5 h, cobimetinib 0.003162278 µM): 0.508 ± 0.0077
pERK immunofluorescence (EGF 100 ng/mL, time after EGF/mock 0.5 h, cobimetinib 0.01 µM): 0.426 ± 0.022
pERK immunofluorescence (EGF 100 ng/mL, time after EGF/mock 0.5 h, cobimetinib 0.031622777 µM): 0.33 ± 0.0039
pERK immunofluorescence (EGF 100 ng/mL, time after EGF/mock 0.5 h, cobimetinib 0.1 µM): 0.275 ± 0.007
pERK immunofluorescence (EGF 100 ng/mL, time after EGF/mock 0.5 h, cobimetinib 0.316227766 µM): 0.2886 ± 0.00096
pERK immunofluorescence (EGF 100 ng/mL, time after EGF/mock 0.5 h, cobimetinib 1 µM): 0.1332 ± 0.0011
pERK immunofluorescence (EGF 100 ng/mL, time after EGF/mock 2 h, cobimetinib 31.62 pM): 0.1938 ± 0.0015
pERK immunofluorescence (EGF 100 ng/mL, time after EGF/mock 2 h, cobimetinib 0.0001 µM): 0.19537 ± 9.1e-05
pERK immunofluorescence (EGF 100 ng/mL, time after EGF/mock 2 h, cobimetinib 0.000316228 µM): 0.1902 ± 0.00052
pERK immunofluorescence (EGF 100 ng/mL, time after EGF/mock 2 h, cobimetinib 0.001 µM): 0.1734 ± 0.0011
pERK immunofluorescence (EGF 100 ng/mL, time after EGF/mock 2 h, cobimetinib 0.003162278 µM): 0.1506 ± 0.0015
pERK immunofluorescence (EGF 100 ng/mL, time after EGF/mock 2 h, cobimetinib 0.01 µM): 0.13666 ± 0.00012
pERK immunofluorescence (EGF 100 ng/mL, time after EGF/mock 2 h, cobimetinib 0.031622777 µM): 0.1275 ± 0.00018
pERK immunofluorescence (EGF 100 ng/mL, time after EGF/mock 2 h, cobimetinib 0.1 µM): 0.125 ± 0.0019
pERK immunofluorescence (EGF 100 ng/mL, time after EGF/mock 2 h, cobimetinib 0.316227766 µM): 0.123 ± 0.00056
pERK immunofluorescence (EGF 100 ng/mL, time after EGF/mock 2 h, cobimetinib 1 µM): 0.1234 ± 0.0012
pERK immunofluorescence (EGF 100 ng/mL, time after EGF/mock 8 h, cobimetinib 31.62 pM): 0.164 ± 0.0024
pERK immunofluorescence (EGF 100 ng/mL, time after EGF/mock 8 h, cobimetinib 0.0001 µM): 0.165 ± 0.0065
pERK immunofluorescence (EGF 100 ng/mL, time after EGF/mock 8 h, cobimetinib 0.000316228 µM): 0.1586 ± 0.00052
pERK immunofluorescence (EGF 100 ng/mL, time after EGF/mock 8 h, cobimetinib 0.001 µM): 0.153 ± 0.003
pERK immunofluorescence (EGF 100 ng/mL, time after EGF/mock 8 h, cobimetinib 0.003162278 µM): 0.142 ± 0.0012
pERK immunofluorescence (EGF 100 ng/mL, time after EGF/mock 8 h, cobimetinib 0.01 µM): 0.128 ± 0.0022
pERK immunofluorescence (EGF 100 ng/mL, time after EGF/mock 8 h, cobimetinib 0.031622777 µM): 0.115 ± 0.0014
pERK immunofluorescence (EGF 100 ng/mL, time after EGF/mock 8 h, cobimetinib 0.1 µM): 0.1075 ± 0.00075
pERK immunofluorescence (EGF 100 ng/mL, time after EGF/mock 8 h, cobimetinib 0.316227766 µM): 0.1043 ± 0.00022
pERK immunofluorescence (EGF 100 ng/mL, time after EGF/mock 8 h, cobimetinib 1 µM): 0.10438 ± 5.4e-05
pERK immunofluorescence (EGF 100 ng/mL, time after EGF/mock 24 h, cobimetinib 31.62 pM): 0.121 ± 0.0026
pERK immunofluorescence (EGF 100 ng/mL, time after EGF/mock 24 h, cobimetinib 0.0001 µM): 0.121 ± 0.0014
pERK immunofluorescence (EGF 100 ng/mL, time after EGF/mock 24 h, cobimetinib 0.000316228 µM): 0.119 ± 0.0033
pERK immunofluorescence (EGF 100 ng/mL, time after EGF/mock 24 h, cobimetinib 0.001 µM): 0.116 ± 0.0015
pERK immunofluorescence (EGF 100 ng/mL, time after EGF/mock 24 h, cobimetinib 0.003162278 µM): 0.1125 ± 0.00065
pERK immunofluorescence (EGF 100 ng/mL, time after EGF/mock 24 h, cobimetinib 0.01 µM): 0.1074 ± 0.00065
pERK immunofluorescence (EGF 100 ng/mL, time after EGF/mock 24 h, cobimetinib 0.031622777 µM): 0.1101 ± 0.0011
pERK immunofluorescence (EGF 100 ng/mL, time after EGF/mock 24 h, cobimetinib 0.1 µM): 0.106 ± 0.00019
pERK immunofluorescence (EGF 100 ng/mL, time after EGF/mock 24 h, cobimetinib 0.316227766 µM): 0.1031 ± 0.00082
pERK immunofluorescence (EGF 100 ng/mL, time after EGF/mock 24 h, cobimetinib 1 µM): 0.096898 ± 9.6e-05
